Experimental data as given in the RNAGym collection of RNA variant scans (doi:10.1101/gad.245936.114).
This sample is rich in variants without activity.

B1: tRNA (parent)
chain: CUCUCGGUAGCCAAGUUGGUUUAAGGCGCAAGACUUUAAUUUAUCACUACGAAAUCUUGAGAUCGGGCGUUCGACUCGCCCCCGGGAGAUUUUUUCCUCGAGCAA

Variants of: B1
Experiment: nonsense suppression (GFP-seq) (ratio to wild type); higher = more function; SUP4oc tRNA, yeast GFP reporter sort-seq
Procedure, shortened: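 Sorted GFP/RFP bins of yeast were each Illumina-sequenced with a phred ≥30 cutoff; the cells held a genome-integrated ochre-suppressor tRNA variant from a library with ~3% random mutations, a galactose-driven GFP ochre reporter, and RFP. Culture was in raffinose/galactose medium containing 80 mg/L adenine. Nonsense suppression, termed GFPSEQ, is the median GFP/RFP of the bins weighted by each variant's estimated cell share per bin, relative to the unmutated parent tRNA, for variants reaching ≥100 reads and ≥30 cells.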

Row | Variant | nonsense suppression
1 | CUCACGGUAGCCAAGUUGGUUUAAGGCGCAAGACUUUAAUUUAUCACUACGAAAUCUUGAGAUCGGGCGUUCGUCUCGCCCCCGGGAAAUUUUUUCCUCGAGCAA | ≤ 0.026
2 | CUCACGGUAGCCAAGUUGGUUUAAGGCGAAAGACUUUAAUUUAUCACUACGAAAUCUUGAGCUCGGGCGUUCGACUCGCCCCUGGGAGAUUUUUUCCUCGAGCAA | ≤ 0.026
3 | CUCAAGGUAGCCAAGUCGGUUUAAGGCCCAAGACAUUAAUUUAUCACUACGAAAUCUUGAGAUCGGGCGUUCGACUCGACCACGGGAGAUUUUUUCCUCGAGCAA | ≤ 0.026
4 | CUCACGGUAGCCAAGUUGGUUUAAGGCGCAAGACUUUAAUUUAUCACUACGAAUUCUUGAGAUCGGGCGUUCGACUCGCCCCCGGGAGAUUUUUUCCUCGAGCAA | 0.191
5 | CUCACGGUAGCCAGGUUGGUUUAAGGCGCAAGACCUUAAUUUAUCACUACGAAAUCCUGAGAUCGGGCGUUCGACUCGCCCCCGGGAGAUUUUUUCCUCGAGCAA | ≤ 0.026
6 | CUCACGGUAGACAAGUUGGUUUAAGGCGCAAGACUUUAAUUUAUCACUACGAAAUCUUGAGGUGAGGCGUUCGACCCGCCCCCGGGAGAUUUUUUCCUCGAGCAA | ≤ 0.026
7 | CUCACGGUAGCCAAGUUGGUUUAAGGCGCAAGGCUUUAAUUUAUCACUACGAAAUCUUGAGAUCGGGCGUUCGACUCGCCCCCCGGAGAUUUUUUCCUCGAGCAA | ≤ 0.026
8 | CUCACGGUAGCCAAGUUGGUUUAAGGCGCAAGACUUUAAUUUAUCACUACGAAAUCUUGAGAUCGGGCGUUCGACUCGUCCCCGGGAGAUUUUUUCCUCGAGCAA | 0.0353
9 | CUCACGGUAGCCAAGUUGGUUUAAGGCGCAUGACUUUAAUUUAUCACUACGAAAUCUUGAGAUCGGGCGUUCGACUCCCCCCCGGGAGAUUUUUUCCUCGAGCAA | ≤ 0.026
10 | CUCACGGUAGCCAAGUUGGUUUAUGGCGCAAGACUUUAAUUUAUCACUACGAAAUCUUGAGAUCGGGCGUUCGACUCGCCCCCGGGAGAUUUUUUCCUCGAGCAA | 0.0458
11 | CUCACGGUAGCCAAGUUGGUUUACGGCGCAAGACUUUAAUUUAUCACUACGAAAUCUUGAGAUCGGGCGUUCGACUCGCCCCCGGGAGAUUUUUUCCUCGAGCAA | ≤ 0.026
12 | CUCACGGUAGCCAAGUUGGUUUAAGGCGUAAGACUUUAAUUUAUCACUACGAAAUCUUGUGAUCGGGCGUUCGACUCGCCCCCGGGAGAUUUUUUCCUCGAGCAA | ≤ 0.026
13 | CUCACGGUAGCCAAGUUGGUUUAAGGCGCAGGACUUUAAUUUAUCACUACGAAAUCUUGAGAUCGGGCGUUCGACUCGCCCCCGGGAGAUUUUUUCCUCGAGCAA | ≤ 0.026
14 | CUCACGGUAGCCAAGUUGGUUUCAGGCGCAAGUCUUUAAUUUAUCACUACGAAAUCUUGAGAUCGGGCGUUCGACUCGCCCCCGGGAGAUUUUUUCCUCGAGCAA | ≤ 0.026
15 | CUCACGGUAGUCAAGUUGGUUUAAGGCGCAAGACUUUAAUUUAUCACUACGAAAUCUUGAGAUCGGGCGUUCGACUCGCCCCCGGGAGAUUUUUUCCUCGAGCAA | 0.0306
16 | CUCACGGUAGACAAGUUGGUUUAAGGCGCAAGACUUUAAUUUAUCACUACGAAAUCUUGAGAUCGGGCGUUCGACUCGCCCCCGGGAGAUUUUUUCCUCGAGCAA | ≤ 0.026
17 | CUCACGGUAGCGAAGUUGGUUUAAGGCGCAAGACUUUAAUUUAUCACUACGAAAUCUUGAGAUGGCGCGUUCGACUCGCCCCCGGGAGAUUUUUUCCUCGAGCAA | ≤ 0.026
18 | CUCACGGUAGCCAUGUUGGUUUAAGGCGAAAGACUUUAAUUUAUCACUACGAAAUCUUGAGAUCUGGCGUUCGACUCGCCCCCGGGAGAUUUUUUCCUCGAGCAA | ≤ 0.026
19 | CUCAAUGUAGCCAAGUUGGUUUAAGGCGCAAGACUUUAAUUUAUCACUACGAAAUCUUGAGAUCGGGCGUUCUACUCGCCCCCGGGAGAUUUUUUCCUCGAGCAA | ≤ 0.026
20 | CUCACGGUAGCCAAGUUGGUUUAAGGCGCAAGACUUUAAUUUAUCACUACGAAUUCUUAAGAUCGCGCGUUCGUCUCGCCCCCGGGAGAUUUUUUCCUCGAGCAA | ≤ 0.026
21 | CUCACGGUAGCCAAGUUGGUUUACGGCGCAAGACUUUAAUUUAUCACUACGAAAUCUUGAGAUCGGGCGUUCGAUUCGCCCCCGGGAGAUUUUUUCCUCGAGCAA | ≤ 0.026
22 | CUCACGGUAGCCAAGUUGGUUUAAGGCGCAAGAUUUUAAUUUAUCACUACGAAAUCUUGAGAUCGGGCGUUCGACUCGCCCCCGGGAGAUUUUUUCCUCGAGCAA | ≤ 0.026
23 | CUCACGGUAGCCAAGUUGGUUUAAGGCGCAAGACUUUAAUUUAUCACUACGAAAUCUUGUGAUCGGGCGUUCGACUCGCCCCCGGGAGAUUUUUUCCUCGAGCAA | 0.52
24 | CUCACGGUAGCCAAGUUGGUUUAAGGCGCAAGACUUUAAUUUAUCACUACGAAAUCUUGAGAUCGGGAGUUCGACUCGCCCCCGGGAGAUUUUUUCCUCGAGCAA | ≤ 0.026
25 | CUCACGGUAGCCAAGUUGGUUUAAGGCGCAAGACUUUAAUUUAUCACUACGAAAUCUUGAGAUCGGGCGUUCGACUUGCCCCCGGGAGAUUUUUUCCUCGAGCAA | 0.0506
26 | CUCACGGUAGUCAAGUUGGUUUAAGGCGCAAGACUUUAAUUUAUCACUACGAAAUCUUGAGAUCGGGCGUUCGACCCGCCCCCGGGAAAUUUUUUCCUCGAGCAA | ≤ 0.026
27 | CUCACGCUAGCCAACUUGGUUUAAGGCGCAAGACUUUAAUUUAUCACUACGAAAUCUUGAGAUCGGGCGUUCGACUCCCCCCCGGUAGAUUUUUUCCUCGAGCAA | ≤ 0.026

Row | Variant | nonsense suppression
28 | CUCACGCUAGCCAAGUUGGUUUAAGGCGCAAGACUUUAAUUUAUCACUACGAAAUCUUGAGAUCGGGCGUUCGACUCGCCACCGGGAGAUUUUUUCCUCGAGCAA | ≤ 0.026
29 | CUCACGGUAGCCAAGUUGGUUUAAGGCGCAAGACUUUAAUUUAUCACUACGAAAUCUUGAGAUCGGGCGUUCGACUCGCCCCCGGGAGUUUUUUUCCUCGAGCAA | ≤ 0.026
30 | CUCACGGUAGCCAAGUUGGUUUAAGGCGCAAGAUUUUAAUUUAUCACUACGAAAUCUUGAGAUCGGGCGUUCGACACGCCCCCGGGAGAUUUUUUCCUCGAGCAA | ≤ 0.026
31 | CUCACGGUAUCCAAGUUGGUUUAAGGCGCAAGACUUUAAUUUAUCACUACGAAAUCUUGAGAUCGGGCGUUCGACUCGCCCCUGGGAGAUUUUUUCCUCGAGCAA | ≤ 0.026
32 | CUCACGGUAGCCAAGUUGGUUUAAGGCGUAAGACUUUAAUUUAUCACUACGAAAUCUUUAGAUCGGGCGUUCAACUCGCCCCCGGGAGAUUUUUUCCUCGAGCAA | ≤ 0.026
33 | CUCACGGUAGCCAAGUUGGUUUAAGGCGCAAGACUUUAAUUUAUCACUACGAAAUCUUGAGAUCGGGCGUUCGCCUCGCCCCCGGGUGAUUUUUUCCUCGAGCAA | ≤ 0.026
34 | CUCAAGGUAGCCAAGUUGGUGUAAGGCGCAAGAUUUUAAUUUAUCACUACGAAAUCUUGAGAUCGGGCGAUCGACUCGCCCCCGGGAGAUUUUUUCCUCGAGCAA | ≤ 0.026
35 | CUCACGGUAGCCAAGUUGGUUUAAGGCGCUAGACUUUAAUUUAUCACUACGAAAUCUUGUGAUCGGGCGUUCGACUCGCCCCCGGGAGAUUUUUUCCUCGAGCAA | ≤ 0.026
36 | CUCACCGUAGCCAAGUUUGUUUAAGGCGCAAGACUUUAAUUUAUCACUACGAAAUCUUGAGAUCGGGCGUUCGACUCGCCCCCGGGAGAUUUUUUCCUCGAGCAA | ≤ 0.026
37 | CUCACCGUAGCCAAGUUGGUUUAAGGCGCAAGACUUUAAUUUAUCACUACGAAAUCUUGAGAUCCGGCGUUCGACUUGCCCCCGGGAGAUUUUUUCCUCGAGCAA | ≤ 0.026
38 | CUCACGGUAGGCAAGUUGGUUUAAGGCGCAAGAUUUUAAUUUAUCACUACGAAAUCUUGAAAUCGGGCGUUCGUCUCGCCCCCGGGAUAUUUUUUCCUCGAGCAA | ≤ 0.026
39 | CUCACGGUAGACAUGUUGGUUUAAGGCGCAAGACUUUAAUUUAUCACUACGAAAUCUUGAGAUCGGGCGUUCGACUCGCCCCCGGGAGAUUUUUUCCUCGAGCAA | ≤ 0.026
40 | CUCACGGUAGCCAGGUUGGUUUAAGGCGCAAGACUUUAAUUUAUCACUACGAAAUCUUGAGAUCGGGCCCUCGACUCGCCCCAGGGAGAUUUUUUCCUCGAGCAA | ≤ 0.026
41 | CUCACGGUAGCCAAGUUGGUUUAAGGCGGAAGACUUUAAUUUAUCACUACGAAAUCUUGAGAUCGGGCGCUCGACUCGACCCCGGCAGGUUUUUUCCUCGAGCAA | ≤ 0.026
42 | CUCACGGUAGCCAAGUUGGUUUAAGGCGCAAGACUUUAAUUUAUCACUACGAAAUCUUGAGCUCGGGCGUUCGACUCGCCCCCGGGAGAUUUUUUCCUCGAGCAA | ≤ 0.026
43 | CUCACGGUAGCCAAGUUGGUUUAAGGCGCAAGACUUUAAUUUAUCACUACGAAAUCUUGAGGUCGGGCGUUCGACUCGCCCCCGGGAGAUUUUUUCCUCGAGCAA | ≤ 0.026
44 | CUCACCGUAGCCAAGGUGGUUUAAGGCGCAAGACUUUAAUUUAUCACUACGAAACCUUGAGAUCGGGCGUUCGACUCGCCCCCGGGAGAUUUUUUCCUCGAGCAA | ≤ 0.026
45 | CUCACGGUAGCCAAGUUGGUUUAAGGCGCAAGACUUUAAUUUAUCACUACGAAAUCUUGAGAUCGGGCGUUCGACUCGCCCCGGGGACAUUUUUUCCUCGAGCAA | ≤ 0.026
46 | CUCACGUUAGCCAAGUUGGUUUAAGGCGCAGGACUUUAAUUUAUCACUACGAAAUCUUGAGAUCGGGCGUUCGACUCGCCCCCGGGAGAUUUUUUCCUCGAGCAA | ≤ 0.026
47 | CUCACGGUAGCCAAGUUGGUUUCAGGCUCAAGACUUUAAUUUAUCACUACGAAAUCUUGAGAUCGGGGGUGCGACGCGCCCCCGGGAGAUUUUUUCCUCGAGCAA | ≤ 0.026
48 | CUCACGGUAGUCAAGUUGGUUUAAGGCUCAAGACUUUAAUUUAUCACUACGAACUCUUGAGAUCGGGCGUUCGACUCGCCCCCGGGAGAUUUUUUCCUCGAGCAA | ≤ 0.026
49 | CUCACGGUAGCCAAGUUGGUUUAAGGCGCAAGUCUUUAAUUUAUCACUACGAAAUCUUGAGAUCGGGCGUUCGACUCGCCCCCGGGAGAUUUUUUCCUCGAGCAA | ≤ 0.026
50 | CUCACGGUAGUCAAGUUGGUUUAAGGCGCAAGAUUUUAAUUUAUCACUACGAAAUCUUGAGAUCGGGCGUUCGACUCGCCCCCGGGAGAUUUUUUCCUCGAGCAA | ≤ 0.026
51 | CUCACGGUAGCCAAGUUGGUUUAAGGCGCAAGGCUUUAAUUUAUCACUACGAAAUCUUGAGAUCGGGCGUUCCACUCGCCCCCGGGAGAUUUUUUCCUCGAGCAA | ≤ 0.026
52 | CUCACGGUAACCAAGUUGGUUUAAGGCGCAAGACUUUAAUUUAUCACUACGAAAUCUUGAGAUCGGGCGUUCGACUCGCCCCCGGGAGAUUUUUUCCUCGAGCAA | ≤ 0.026
53 | CUCAAGGUAGCCAAGUCGGUUUAAGGCCCAAGACAUUAAUUUAUCACUACGAAAUCUUGAGAUCGGGCGUUCGACUCGACCCCGGGAGAUUUUUUCCUCGAGCAA | ≤ 0.026
54 | CUCACGGUAGUCAAGUUGAUUUAAGGCGCAAGACUUUAAUUUAUCACUACGAAAUCUUGAGAUCGGGCGUUCGACUCGCCCCCGAGAGAUUUUUUCCUCGAGCAA | ≤ 0.026
